Values of other authors as cited in publication PMC11006913.
The other results are listed elsewhere or left out.

Target: ISX (Homo sapiens) (UniProt Q2M1V0)
Settings: PBM; conditions not shown; double strand, one strand shown; scale: upbm affinity estimate (log intensity, higher = more binding, comparable within an allelic series)

Row | Sequence | binding signal
1 | GAGTCCGC [8-mer GAGTCCGC] | 9.73
2 | AAATATTG [8-mer AAATATTG] | 11.5
3 | GCCGGGCA [8-mer GCCGGGCA] | 9.88
4 | CCGGGAGC [8-mer CCGGGAGC] | 9.78
5 | GGGGAACC [8-mer GGGGAACC] | 9.68
6 | GCCGGCCC [8-mer GCCGGCCC] | 9.78
7 | ATAAGGGC [8-mer ATAAGGGC] | 10.9
8 | CGCTGGCC [8-mer CGCTGGCC] | 9.53
9 | GCGCAAGC [8-mer GCGCAAGC] | 9.66
10 | CCCGCGAC [8-mer CCCGCGAC] | 9.72
11 | TGGCGCCA [8-mer TGGCGCCA] | 9.89
12 | ATACTAAT [8-mer ATACTAAT] | 13
13 | ACAAATCT [8-mer ACAAATCT] | 10.8
14 | CGGCGGTC [8-mer CGGCGGTC] | 9.54
15 | AGTTTAGA [8-mer AGTTTAGA] | 10.9
16 | TAAATGTA [8-mer TAAATGTA] | 11.5
17 | GCCGGGAC [8-mer GCCGGGAC] | 9.72
18 | AGCCCCGG [8-mer AGCCCCGG] | 9.58
19 | GCCCCGGC [8-mer GCCCCGGC] | 9.49
20 | AGTCGTTA [8-mer AGTCGTTA] | 11.1

Row | Sequence | binding signal
21 | GCCGGGGA [8-mer GCCGGGGA] | 9.59
22 | CGCCTAGC [8-mer CGCCTAGC] | 9.64
23 | GGGCACCC [8-mer GGGCACCC] | 9.91
24 | CCCCCCCC [8-mer CCCCCCCC] | 9.28
25 | CCCAAAGG [8-mer CCCAAAGG] | 9.64
26 | GAATGAAC [8-mer GAATGAAC] | 10.5
27 | CTATCAAA [8-mer CTATCAAA] | 10.8
28 | GAGTCGCC [8-mer GAGTCGCC] | 9.7
29 | ATAATAAG [8-mer ATAATAAG] | 13.7
30 | GCACCCCC [8-mer GCACCCCC] | 9.74
31 | CGTGATAA [8-mer CGTGATAA] | 11.2
32 | AATTGTTG [8-mer AATTGTTG] | 12.6
33 | CCCCGCAC [8-mer CCCCGCAC] | 9.72
34 | CCCGGGGC [8-mer CCCGGGGC] | 9.84
35 | ATATCGAT [8-mer ATATCGAT] | 10.7
36 | CAAATTGA [8-mer CAAATTGA] | 13.1
37 | CACGGGCC [8-mer CACGGGCC] | 9.63
38 | GCGGTCAC [8-mer GCGGTCAC] | 9.7
39 | GGGCCCCA [8-mer GGGCCCCA] | 9.69
40 | TTGGCCAA [8-mer TTGGCCAA] | 10.1

Target: ISX R83Q (Homo sapiens) (UniProt Q2M1V0)
Settings: PBM; conditions not shown; double strand, one strand shown; scale: upbm affinity estimate (log intensity, higher = more binding, comparable within an allelic series)

Row | Sequence | binding signal
41 | GAGTCCGC [8-mer GAGTCCGC] | 9.77
42 | GCCGGGCA [8-mer GCCGGGCA] | 9.73
43 | CCGGGAGC [8-mer CCGGGAGC] | 9.67
44 | GGGGAACC [8-mer GGGGAACC] | 9.8
45 | GCCGGCCC [8-mer GCCGGCCC] | 9.63
46 | CGCTGGCC [8-mer CGCTGGCC] | 9.57
47 | GCGCAAGC [8-mer GCGCAAGC] | 9.7
48 | CCCGCGAC [8-mer CCCGCGAC] | 9.69
49 | TGGCGCCA [8-mer TGGCGCCA] | 9.73
50 | ATACTAAT [8-mer ATACTAAT] | 11.5
51 | ACAAATCT [8-mer ACAAATCT] | 10.3
52 | CGGCGGTC [8-mer CGGCGGTC] | 9.68
53 | GCCGGGAC [8-mer GCCGGGAC] | 9.73
54 | AGCCCCGG [8-mer AGCCCCGG] | 9.76
55 | GCCCCGGC [8-mer GCCCCGGC] | 9.62
56 | GCCGGGGA [8-mer GCCGGGGA] | 9.7

Row | Sequence | binding signal
57 | CGCCTAGC [8-mer CGCCTAGC] | 9.68
58 | GGGCACCC [8-mer GGGCACCC] | 9.77
59 | CCCCCCCC [8-mer CCCCCCCC] | 9.6
60 | CCCAAAGG [8-mer CCCAAAGG] | 9.77
61 | GAATGAAC [8-mer GAATGAAC] | 10.3
62 | GAGTCGCC [8-mer GAGTCGCC] | 9.76
63 | ATAATAAG [8-mer ATAATAAG] | 11.8
64 | GCACCCCC [8-mer GCACCCCC] | 9.73
65 | CCCCGCAC [8-mer CCCCGCAC] | 9.76
66 | CCCGGGGC [8-mer CCCGGGGC] | 9.69
67 | CAAATTGA [8-mer CAAATTGA] | 11.7
68 | CACGGGCC [8-mer CACGGGCC] | 9.59
69 | GCGGTCAC [8-mer GCGGTCAC] | 9.78
70 | GGGCCCCA [8-mer GGGCCCCA] | 9.76
71 | TTGGCCAA [8-mer TTGGCCAA] | 9.86
